Results reported in PubChem BioAssay AID1466 (National Center for Advancing Translational Sciences (NCATS), 2008).
Hit rate of the full screen: of about 200,000 compounds, about 10 (0.005%) were called active. Inconclusive means that the source gave no clear call. Such entries were picked first, then a sample of the others. The call rests on the fitted dose curve; in most records, active means well fitted inhibition curve with a large enough effect; inconclusive means small, poorly fitted or top-dose-only effect, or effect the other way, or another doubt; inactive means no such curve, though single readings can be large or run the other way. No potency is given beside an inconclusive call; the fits are too rough.

Each compound was assayed against Lysosomal alpha-glucosidase (Homo sapiens) (UniProt P10253) (assay: qHTS Assay for Inhibitors of Human alpha-Glucosidase as a Potential Chaperone Treatment of Pompe Disease). Settings: purified human GAA, 4-MU-alpha-glucoside fluorescence; activity change, negative = inhibition: at 76.9 µM (top of the series) unless noted.
Summary of the method: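 Fluorescence at Ex 365/Em 440 nm from 4-methylumbelliferone reported enzyme activity after 20 min at room temperature. Reactions used 4 nM enzyme and 400 uM substrate at pH 5.0; curves fitted with the Hill equation.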
Potency means the concentration at half of the fitted maximal effect; tags describe the fitted curve by direction and shape.
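Wherever activity change, negative = inhibition is given: plate controls were uninhibited enzyme wells for no effect and no-enzyme background for full effect.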

SMILES | Potency | activity change, negative = inhibition
Cc1ccnc2nc(C(=O)Nc3nc(-c4ccccn4)cs3)nn12 | inactive | –
CCOC(=O)c1cc(-c2cccs2)nc2onc(C)c12 | inconclusive [activator, partial curve] | –
O=C(N/N=C/c1cc2c3c(c1O)CCCN3CCC2)c1ccccc1O | inconclusive [inhibitor, partial curve, poor fit] | –
COc1ccc(OC)c(/C=C/C(=O)N(C)CC(=O)Nc2ccc(C)cc2)c1 | inconclusive [activator, single point] | –
Cn1cc(/C=C(\C#N)C(=O)Nc2ncc(Cc3cccc(Cl)c3)s2)c2ccccc21 | inconclusive [inhibitor, single point] | –
O=C(NCCCN1CCCCCC1)c1ccc(CS(=O)(=O)Cc2ccccc2F)o1 | inconclusive [inhibitor, full curve, poor fit] | –
COc1cc(OC)cc(C(=O)Nc2nnc(Cc3ccc(OC)c(OC)c3)s2)c1 | inconclusive [inhibitor, partial curve] | –
Cc1cc(Br)ccc1NC(=O)CN1C(=O)CCC1=O | inconclusive [inhibitor, partial curve] | –
COc1ccc(Cn2c(=O)[nH]c3cc(C(=O)NCCCN4CCCCC4)ccc3c2=O)cc1 | inconclusive [activator, partial curve] | –
CC(=O)Nc1ccc(C2=NNC(=Nc3cccc(S(=O)(=O)N(C)C)c3)SC2)cc1 | inconclusive [inhibitor, single point] | –
Cn1cccc1C(=O)NC(=O)COC(=O)CNS(=O)(=O)c1ccc(Br)cc1 | inconclusive [inhibitor, partial curve] | –
CC(=O)Nc1ccc(S(=O)(=O)Nc2cccc(-c3ccc4nncn4n3)c2)cc1 | inconclusive [inhibitor, single point] | –
COc1ccc(S(=O)(=O)N(Cc2cc3cc(C)ccc3[nH]c2=O)CC2CCCO2)cc1 (stereo not given) | inconclusive [inhibitor, single point] | –
O=C(Cc1ccccc1)c1c[nH]c(C(=O)O)c1 | inconclusive [inhibitor, single point] | –
CSC(=S)N/N=C/c1ccc(Br)cc1 | inconclusive [activator, full curve, poor fit] | –
COc1ccc(N(C(=O)CCl)C(C)(C(=O)Nc2c(C)cccc2C)c2ccccn2)cc1 (stereo not given) | inconclusive [inhibitor, partial curve] | –
Cn1cc(-c2ccc(Cl)cc2)cc(C#N)c1=O | inconclusive [activator, single point] | –
CCN(CC)c1ccc(N=Cc2ccccc2[N+](=O)[O-])cc1 | inactive | –
COc1ccc(Br)cc1S(=O)(=O)N(CC(=O)N1CCOCC1)c1ccccc1 | inconclusive [activator, partial curve, poor fit] | –
Cc1cccc(-n2c(C)cc(/C=C3\C(=N)N4N=C(CC(C)C)SC4=NC3=O)c2C)c1 | inconclusive [inhibitor, single point] | –
O=C(Nc1ccsc1C(=O)NC1CCCCC1)c1ccc(F)cc1 | inconclusive [activator, full curve, poor fit] | –
CC(C)CNC(=O)c1cccc(C(=O)NCC(C)C)c1 | inconclusive [activator, partial curve] | –

SMILES | Potency | activity change, negative = inhibition
COc1ccc(-n2c(N)c(C(=O)NCc3cccnc3)sc2=S)cc1 | inconclusive [inhibitor, partial curve, poor fit] | –
Cc1ccc(S(=O)(=O)N2CCCCC2)cc1NC(=O)COC(=O)CNC(=O)c1cc(Cl)cc([N+](=O)[O-])c1 | inconclusive [inhibitor, full curve] | –
C=CCN1CC(c2nc3ccccc3n2Cc2cccc3ccccc23)CC1=O (stereo not given) | inconclusive [inhibitor, partial curve, poor fit] | –
CCN(CC)S(=O)(=O)c1ccc(N2CCOCC2)c(NC(=O)c2cc(=O)[nH]c3ccccc23)c1 | inconclusive [inhibitor, single point] | –
CN1CCc2nc(SC(C(=O)O)c3ccccc3)c(C#N)c(-c3cccs3)c2C1 (stereo not given) | inactive | –
CCC(=O)c1ccc(OCC(O)Cn2nc(C)c(C(C)=O)c2C)cc1 (stereo not given) | – | inconclusive: 15.7% [activator]
CCOC(=O)/C(=C\c1cccnc1)C(=O)c1cc(C(C)=O)c(Nc2ccccc2)s1 | inconclusive [inhibitor, single point] | –
COC(=O)C(CCSC)NC(=O)CNS(=O)(=O)c1ccc(Cl)cc1 (stereo not given) | – | inconclusive: 1.84% [activator]
COc1cc2cc(Oc3ccc4ccc(=O)oc4c3)c(=O)oc2cc1OC1OC(COC(=O)CC(C)(O)CC(=O)O)C(O)C(O)C1O (stereo not given) | inconclusive [activator, partial curve] | –
c1cnc2c(OCc3cn4cccnc4n3)cccc2c1 | inconclusive [inhibitor, full curve] | –
CCS(=O)(=O)CCSc1nc2ccccc2o1 | inactive | –
O=[N+]([O-])c1cn(-c2nc(-c3ccco3)cc(C(F)(F)F)n2)cn1 | – | inconclusive: -15.3% [inhibitor]
CC(C)CNS(=O)(=O)c1ccc(CC(C)C)cc1 | – | inconclusive: -15.2% [inhibitor]
Cc1noc(C)c1S(=O)(=O)N(Cc1ccccc1)C(C)C | inconclusive [inhibitor, single point] | –
CNC[C@H](O)c1cccc(O)c1 | inconclusive [activator, full curve] | –
CCOC(=O)c1c(C)[nH]c(C=Nc2ccc(OC)cc2)c1O | inactive | –
COc1cc(/C(C#N)=C/c2ccccc2)c([N+](=O)[O-])cc1OC | inconclusive [inhibitor, full curve] | –
Cc1cc(=O)oc2c(CN(CC(C)C)CC(C)C)c(O)ccc12 | inconclusive [activator, partial curve] | –
CCN(CC(=O)NC1CCCC1)S(=O)(=O)c1ccc(C)cc1 | inconclusive [inhibitor, single point] | –
CCn1ccnc1CN1CCCC(C(=O)c2ccc3cc(OC)ccc3c2)C1 (stereo not given) | inconclusive [inhibitor, full curve] | –
CCN1/C(=C/c2ccc3cc(C)ccc3[n+]2CC)Sc2cc(C)c(C)cc21 | – | inconclusive: 12.7% [activator]
CCCCN(C(=O)c1cccc2c(=O)c(C)c(-c3ccccc3)oc12)c1ccccc1 | inconclusive [inhibitor, single point] | –

SMILES | Potency | activity change, negative = inhibition
CCCOc1ccccc1N/C(=N/c1nc(C)cc(C)n1)NC(=O)Nc1ccc(Cl)cc1 | – | inconclusive: -15% [inhibitor]
Cc1ccn2cc(-c3cc4ccccc4oc3=O)nc2c1 | inactive | –
O=C1CC(N2CCN(c3ccccc3Cl)CC2)C(=O)N1c1ccccc1 (stereo not given) | inconclusive [inhibitor, single point] | –
Cc1cc(C)cc(N=Cc2[nH]c3ccc(Br)c(Cl)c3c2O)c1 | inactive | –
O=C(COc1ccc(S(=O)(=O)NC2CCCCC2)cc1)N1CCN(c2cccc(Cl)c2)CC1 | – | inconclusive: -15.9% [inhibitor]
COCCn1c(=S)[nH]c2ccc(N(C)C)cc2c1=O | inactive | –
N#Cc1c(-c2cccc(Br)c2)cc(-c2cccnc2)nc1N | – | inconclusive: 64.7% [activator]
Cc1ccc(C(=O)N2CCCC(c3ccc(Cl)cc3)=N2)cc1 | inconclusive [inhibitor, partial curve, poor fit] | –
N#CC1=C(N)Oc2cc(O)ccc2C1c1ccncc1 (stereo not given) | inactive | –
CC(C)NS(=O)(=O)c1ccc(NC(=S)NC(=O)c2ccc(-c3ccccc3)cc2)cc1 | inconclusive [inhibitor, single point] | –
Cc1nc2ccccc2c(=O)n1NC(=O)c1c(O)c2c(n(CC(C)C)c1=O)CCCC2 | inconclusive [inhibitor, single point] | –
CCc1ccc(OCC(=O)NC(=S)Nc2cccc(CO)c2)c(Br)c1 | inconclusive [inhibitor, partial curve] | –
O=C1c2ccccc2C(=O)N1CCc1nc2ccccc2c(=O)n1Cc1ccco1 | inconclusive [inhibitor, partial curve] | –
CCN(C(=O)COc1ncnc2scc(-c3ccc(F)cc3)c12)C1CCS(=O)(=O)C1 (stereo not given) | – | inconclusive: -16.5% [inhibitor]
CCOC(=O)c1c(NC(=O)CSc2c[nH]c3ccccc23)sc2c1CCC2 | inconclusive [inhibitor, partial curve, poor fit] | –
O=C(CNc1cccc2ccccc12)N/N=C/c1cccc(Oc2ccccc2)c1 | – | inconclusive: -16.7% [inhibitor]
CC(C)Cn1c(N)c(S(=O)(=O)c2cccs2)c2nc3ccccc3nc21 | inconclusive [activator, partial curve] | –
COc1ccc(NC(=O)CC2C(=O)N(c3ccc(OC)cc3)C(=O)N2CCc2cccs2)cc1 (stereo not given) | inconclusive [inhibitor, full curve, poor fit] | –
O=C(NC1CC1)C1CCN(S(=O)(=O)c2cc(Cl)ccc2Cl)CC1 | – | inconclusive: 17.6% [activator]
Cc1noc(NC(=O)c2cccc(Cl)c2Cl)c1C#N | – | inconclusive: 16.9% [activator]
O=C(COC(=O)c1nc(Cl)ccc1Cl)NCc1ccccc1 | inconclusive [inhibitor, single point] | –
